According to PubChem BioAssay AID686971 (National Center for Advancing Translational Sciences (NCATS), 2013):
Hit rate of the full screen: of about 360,000 compounds, about 7,500 (2.1%) were called active. The shares of active, inactive and inconclusive entries below differ from those in the screen. Calls come from the whole dose curve; as a rule, active = well fitted cell-killing curve with a large enough effect; inconclusive = small, poorly fitted or top-dose-only effect, or effect the other way, or another doubt; inactive = no such curve, though single readings can be large or run the other way. Potencies of inconclusive entries are left out as doubtful fits.

experiment: qHTS for induction of synthetic lethality in tumor cells producing 2HG: qHTS for the HT-1080-IDH1KD cell line; details: HT-1080 IDH1 knockdown viability, ATP luminescence, 48 h; activity, negative = toxicity: at 46.1 µM (top of the series) unless noted;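 for activity, negative = toxicity: 0% = DMSO wells and -100% = cell-free medium wells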
Summary of the method: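 In this qHTS, HT-1080 cells depleted of IDH1 are exposed for 48 h at 37 °C to compound titrations. Toxicity is scored from CellTiter-Glo luminescence, with DMSO as full viability and medium alone as none.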
Potency is the fitted concentration of half-maximal effect; tags give direction and shape of the fitted curve.

| SMILES | Potency | activity, negative = toxicity |
| --- | --- | --- |
| N#CC(c1ccccc1)N(CCCCl)C(=O)c1ccccc1 (configuration not stated) | inactive | – |
| CCN(CC)c1ccc(C(=O)OCC(=O)N(C(C)C)C(C)C)cc1 | inconclusive [cytotoxic, single point] | – |
| Nc1ccccc1SC/C=C/CSc1ccccc1N | inconclusive [cytotoxic, full curve] | – |
| CC(C)C[C@@H](CN1CCCC1CN1C(=S)NC[C@@H]1Cc1ccccc1)N1C[C@H](Cc2ccccc2)N(CC2CCCCC2)C1=S (some centres not stated) | inactive | – |
| O=C1C2C(c3ccccc3)CC=CC2[C@H](c2ccc(C(F)(F)F)cc2)N1Cc1ccccc1 (some centres not stated) | inconclusive [cytotoxic, partial curve] | – |
| CC1=CC2=NC(=O)/C(=C/c3cccn3Cc3ccccc3)C(=N)N2O1 | – | inconclusive: -2.43% [cytotoxic] |
| Cc1ccc(C(O)c2ncc(-c3cccc4ccccc34)[nH]2)c(C)c1 (configuration not stated) | inconclusive [cytotoxic, single point] | – |
| CCN(CC)c1ccc(/C=N/NC(=O)c2ccco2)c(O)c1 | inconclusive [cytotoxic, full curve] | – |
| COc1ccc2c(c1)CC/C(=C\c1ccc(OC)c(Cn3nc(C)cc3C)c1)C2=O | inconclusive [cytotoxic, single point] | – |
| C=CCSC(=S)NC1CCS(=O)(=O)C1 (configuration not stated) | inconclusive [cytotoxic, single point] | – |
| CC(C)(C)c1ccc(C(=O)NCCn2c(N)c(C#N)c3nc4ccccc4nc32)cc1 | active: 16.4 µM | – |
| O=C(COc1ccccc1)Nc1nnc(COc2ccccc2)s1 | inactive | – |
| CC[C@]1(C(=O)OC)[C@H]2C(=O)N(C)C(=O)[C@H]2[C@H]2CN=C(SC)N21 | inactive | – |
| CCCCCCN1C[C@@H](n2cc(COC(=O)c3ccccc3)nn2)[C@H](O)C[C@@H]1c1ccc(OC)cc1 | inconclusive [cytotoxic, single point] | – |
| O=C(CCN1CCC(c2ccccc2)C1)c1cccs1 (configuration not stated) | active: 3.98 µM | – |
| O=C(NC(c1ccc(-c2ccccc2)cc1)c1cnccn1)C1CCN(CCOc2ccc(F)cc2)CC1 (configuration not stated) | active: 16.4 µM | – |
| CN(Cc1cnc2nc(N)nc(N)c2n1)c1ccc(C(=O)NC(CCC(=O)O)C(=O)O)cc1 (configuration not stated) | active: 0.0065 µM | – |
| COc1cc(CCNC(=O)c2cnn3ccccc23)cc(OC)c1OC | inconclusive [cytotoxic, single point] | – |
| CC(C)(C)C(=O)Cn1ncc(Cl)c(Cl)c1=O | inconclusive [cytotoxic, single point] | – |
| C[C@H]1CN([C@@H](C)CO)C(=O)c2cccc(NC(=O)Nc3ccc(C(F)(F)F)cc3)c2O[C@@H]1CN(C)S(=O)(=O)c1ccccc1 | inconclusive [cytotoxic, single point] | – |
| CCCCc1oc2ccccc2c1C(=O)c1cc(I)c(OCCN(CC)CC)c(I)c1 | inconclusive [cytotoxic, single point] | – |
| c1ccc2c(c1)nc(N1CCOCC1)c1ccccc12 | inactive | – |
| COc1ccc(-c2nnc(-c3cc(OC)c(OC)c(OC)c3)o2)cc1OC | inactive | – |
| C/C(=N\O)C(=O)OC1CC(C)CCC1C(C)C (configuration not stated) | inactive | – |

| SMILES | Potency | activity, negative = toxicity |
| --- | --- | --- |
| COc1ccc(C)cc1NC(=O)COC(=O)c1ccc2c(c1)OCCO2 | inconclusive [cytotoxic, single point] | – |
| Cn1cc(C(=O)CCl)c2ccccc21 | inconclusive [cytotoxic, single point] | – |
| OC(COc1ccc(Cl)cc1)CN1CCC(Cc2ccccc2)CC1 (configuration not stated) | inconclusive [cytotoxic, single point] | – |
| CCCOc1ccc(-c2nc(C#N)c(N3CCC(C(N)=O)CC3)o2)cc1 | inconclusive [cytotoxic, single point] | – |
| CCCCOc1ccc(C(=O)Nc2ccc3c(c2)OCO3)cc1 | inconclusive [cytotoxic, single point] | – |
| COc1cccc(Nc2nc(N)nc(-c3oc4ccccc4c3C)n2)c1 | active: 7.94 µM | – |
| COc1cccc(-c2nc(N3CCCCC3)c3ccccc3n2)c1O | inconclusive [cytotoxic, partial curve] | – |
| S=C(NC1CCCCC1)N1CCOCCOCCN(C(=S)NC2CCCCC2)CCOCCOCC1 | inconclusive [cytotoxic, partial curve, poor fit] | – |
| CC1(C(=O)NCc2ccccn2)CCN1C(=O)Cc1ccc(Cl)cc1Cl (configuration not stated) | inactive | – |
| Cc1ccc(C(=O)Nc2cccnc2)cc1[N+](=O)[O-] | inactive | – |
| O=C(Nc1ccc([N+](=O)[O-])cc1Cl)c1cc(Cl)ccc1O | active: 0.366 µM | – |
| Cc1cc(C)c(S(=O)(=O)c2ccccc2C(C)C)c(=O)[nH]1 | inactive | – |
| C=CCSc1n[nH]c(-c2ccc(OC)cc2)n1 | inconclusive [cytotoxic, single point] | – |
| Nc1nc(Nc2ccccc2)nc(NCc2ccccc2)c1[N+](=O)[O-] | active: 16.4 µM | – |
| CC1CCCN(C(=O)Cn2c(-c3nonc3N)nc3ccccc32)C1 (configuration not stated) | inactive | – |
| CCc1ccc2c(c1)[C@H]1OCC[C@H]1[C@@H](c1cccs1)N2 | active: 3.66 µM | – |
| OCCn1c(CSc2nc3ccccc3n2CCO)nc2ccccc21 | – | inconclusive: 2.02% [cytotoxic] |
| CC(=O)c1ccc(-n2cc(-c3ccc(C(C)(C)C)cc3)[n+]3c2SCCC3)cc1 | inconclusive [cytotoxic, partial curve] | – |
| Cc1nc(N2CCN(C(=O)c3ccco3)CC2)c2oc3ccccc3c2n1 | inconclusive [cytotoxic, single point] | – |
| Oc1c(C(c2ccccn2)N2CCCCC2)cc(Cl)c2cccnc12 (configuration not stated) | active: 16.4 µM | – |
| O=c1[nH]c2ccccc2cc1CN(Cc1cccnc1)S(=O)(=O)c1ccc([N+](=O)[O-])cc1 | inactive | – |
| Cc1ccc(-c2nc3cc(C)c(Br)c(C)n3c2Cc2ccsc2)cc1 | inconclusive [cytotoxic, partial curve] | – |
| CC(=O)NC(c1cccc(F)c1)c1nc(-c2ccc(N(C)C)cc2)cs1 (configuration not stated) | inactive | – |
